# ± gives the standard deviation of the averaged measurements. This is one part of the list.
# Test system: PfAP2-LT AP2 domain (GST-tagged)
# Test: gcPBM binding intensity (ln(normalized median fluorescence intensity)); higher = stronger DNA binding
# How it was run: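 For binding intensity, the highest Masliner-normalised natural-log median intensity across replicate spots of either probe orientation was taken. Protein bound to the array was stained with Alexa488 anti-GST antibody and scanned at 488 nm. The protein, GST-tagged P. falciparum DNA-binding domains from E. coli at about 25 μg on average, had been applied for 1 h to an Agilent 4 × 180k array of primer-extended double-stranded 36-bp intergenic genomic probes and negative controls.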
row,Sequence,gcPBM binding intensity (ln)
1,ATAGAATATTGATATTGTACGTTATCTTAAAACAAT [XGTACX_site1702],8.57 ± 0.33
2,AAAAAAAAAAAAACAAGTACAAAGGATAGAAAAAAA [XGTACX_site4133],8.76 ± 0.45
3,ATAAGAACGTCTATGTGTACGCAGCAAAACTGAGTT [XGTACX_site6385],8.92 ± 0.28
4,TTCTCAAAGAAGAAAAAGTTTTTTTAATTTTTCTTT [XGTACX_negctrl_site543],8.03 ± 0.61
5,CAAAAAAAAAAAAAAAATAAATAAAGGAAATAAAAA [CACACA_negctrl_site20],8.38 ± 0.68
6,ACATATAAAATGTATACACACAAATATTACATATAT [CACACA_site1472],9.11 ± 0.45
7,AATAAAAAATATAACACAAATATGTATATATATATA [TGCATGCA_negctrl_site245],9.29 ± 0.11
8,AACCAATTATATTTACGTACGTACGGTTTTTTATAT [XGTACX_site1291],9.18 ± 0.45
9,ATATATTAATATACTCGTACATATTCTTATTGTGTA [XGTACX_site3728],8.94 ± 0.45
10,AATATATTTTTTTTTTGTACATATTGTAAAATAATA [XGTACX_site6805],8.43 ± 0.47
11,TATATATATTTCCAGTGTACTTATTTTTTAATCAAT [XGTACX_site8220],8.71 ± 0.51
12,TCCTCAAAAAAATAAAATAATTTATACTTTTTTAAA [GTGCAC_negctrl_site724],8.01 ± 0.54
13,CACATTTAGAAATAGTTTTATTTTGTATATTCTATT [CACACA_negctrl_site1382],8.64 ± 0.4
14,TATACATTTATGTACACACACATATCTGTATATTTA [CACACA_site5617],9.23 ± 0.42
15,GTATGTGTATGTGTATGTACATATGTATGTATAAAA [XGTACX_site8191],9.19 ± 0.49
16,TTTTGTATATATCACATTAAAAGAAAAAAATATATG [GTGCAC_negctrl_site120],8.22 ± 0.46
17,CATATAAAAAATATGGTGCAGTTTTTTTTTTTTTTT,8.82 ± 0.37
18,TATATATATAATGTTTGTACATATTAAATATATATG [XGTACX_site407],8.61 ± 0.47
19,TAAATATTTTTATGGGTGCGTTCTTTAGCGCAATTT,8.59 ± 0.4

row,Sequence,gcPBM binding intensity (ln)
1,TTTTGCAATAATGTTGCACACTAAATAGTCATATAT [CACACA_site7977],8.88 ± 0.4
2,ATTATTGTTGTTCATGTACACACTATAATAAAAGCA [CACACA_site4168],8.78 ± 0.42
3,TTTATATTGATATATACACACATATACATCCTATTT [CACACA_site7442],9.11 ± 0.42
4,ATTAATTATTTCAATGCATGTGAACACTATATATAA [TGCATGCA_site600],8.84 ± 0.42
5,TAATTAAAATTATCTACACACCTTTATAAATATATA [CACACA_site3928],8.48 ± 0.47
6,CTTATTAAAATTATTTGTACACAATATGTAAAAGTA [XGTACX_site7237],8.46 ± 0.31
7,AAAAAAAGTTGATACTGTACTCGTGCATTATGAATA [XGTACX_site5558],8.79 ± 0.4
8,AGGTATTTTCTTGTGACACACATATATATATATATT [CACACA_site2220],9.26 ± 0.33
9,TTGTATATTATATGTACACACAATAAGTTAATATAA [CACACA_site909],8.87 ± 0.38
10,TTCCTTTGTCCTAACTGTACTCAAATTTATTAGTGG [XGTACX_site226],8.72 ± 0.49
11,ATAATATATTTTTGAACACACAATATAGATTTATAT [CACACA_site7857],8.66 ± 0.43
12,AAAAATAAAATAATATGTACATATATAATATATATA [XGTACX_site4786],8.76 ± 0.55
13,TATTCGAAAATTATTCAAATTATCTAACATATTATT [TGCATGCA_negctrl_site70],8.35 ± 0.33
14,AATTGGAAACAACCAAAAAAATTAAAGTTGTATCCT [CACACA_negctrl_site565],8.53 ± 0.45
15,TAATTTTTTAGACACACACACATATAAATATAAATA [CACACA_site6195],9.37 ± 0.34
16,TATATCTTAATATACACACACACATATATATATATA [CACACA_site4968],9.71 ± 0.014
17,TAAATGAAAACCATTAGTACTTATACTGATAAATGT [XGTACX_site763],8.68 ± 0.42
18,TATATAAATATATATACACACAAAAAAAAAAAAAAA [CACACA_site1406],8.8 ± 0.45
19,TAAATACAAAAATGTACACACATATATATATTTTTA [CACACA_site3503],8.93 ± 0.4

row,Sequence,gcPBM binding intensity (ln)
1,TAAATTTTAATATGCACACAAAATGTTATATTAAAA [CACACA_site4366],8.55 ± 0.5
2,CGGCACATTATATATACACACATATAAATATATACA [CACACA_site8086],9.15 ± 0.41
3,TGTTTATTCTTTAAATATTATTCAAATACTACAAGT [CACACA_negctrl_site746],8.34 ± 0.54
4,AAAAAAAAAAAAAATTGTACATAATAAAAATATGGA [XGTACX_site3189],8.55 ± 0.56
5,ATACAAGAATTAAACACACACAAAATATAAATTCTT [CACACA_site3005],9.34 ± 0.42
6,CACAGACACGGACACACACACACACCCATATATATA [CACACA_site4354],10.1 ± 0.32
7,AGCAACCTGAAAAAATTACTCTTTCTTAAACAAATT [XGTACX_negctrl_site266],8.44 ± 0.49
8,ACCTGTAAAAATGTTTATATATATATATATATATAT [CACACA_negctrl_site1500],9.88 ± 0.3
9,TTAAGGATTAAGGTGTGTACATATAAATATTATATA [XGTACX_site7532],8.78 ± 0.42
10,AATATTAAATGAAAAAGTACAAACAGTCCTATATTA [XGTACX_site1926],8.69 ± 0.48
11,ATTTATATAAAGAATGTACACACAGAAATGCACCCA [CACACA_site8715],9.15 ± 0.35
12,CGTATGCACAAATTATGTACTTATATATATATATAT [XGTACX_site2348],9.09 ± 0.22
13,AAAAAAAAAAAACATACACACAAATAAATACATACA [CACACA_site6073],9.23 ± 0.36
14,TAAATATATATATGTGTGCACTTCTTCATTTTAATA [GTGCAC_site9537],9.07 ± 0.38
15,CGGCACATTATATATACACACATATAAATAAATACA [CACACA_site4477],9.14 ± 0.46
16,TATATATATAAGTGCACACTGAACCAAGAAAATTAT [CACACA_site3008],9.2 ± 0.38
17,GGATTGATAAGTGGTACACACATATAGATTATAGAT [CACACA_site7367],9.11 ± 0.48
18,CCATCTAAACACAACTCGAGTTGGATGTGTGAACTT [XGTACX_negctrl_site83],8.98 ± 0.37

# — the supplement of paper PMC11417369
